Measured values as given in a collection of fitness landscapes (doi:10.1038/s41467-024-54723-y).
Whole data set: some 18,000 sequences, median “TetR repression strength (sort-seq, GFP reporter)” near 0.23, cut for the highest 2% near 0.68. The list shows a part of the results.

The sequences below were run against TetR (class B, Tn10) (UniProt P04483) (assay: TetR repression strength (sort-seq, GFP reporter) (relative to tetO2 = 1); higher = stronger repression). Details: E. coli.
Chain of UniProt P04483 (P04483 whole entry): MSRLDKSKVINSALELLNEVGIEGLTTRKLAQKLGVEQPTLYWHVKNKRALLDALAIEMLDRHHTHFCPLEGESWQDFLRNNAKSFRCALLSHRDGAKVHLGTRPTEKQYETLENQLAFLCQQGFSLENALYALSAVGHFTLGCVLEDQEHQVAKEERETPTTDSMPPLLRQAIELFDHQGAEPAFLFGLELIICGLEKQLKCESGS
How it was run: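 Repression strength is the top bin index plus one minus the read-weighted mean bin, relative to the unaltered operator's value. A low-copy library in E. coli SIG10-MAX randomized eight operator positions between a constitutive promoter and sfGFP, with TetR expressed constitutively; cells grew 5 h at 37 °C in LB with 50 µg/mL chloramphenicol and 10^6 were FACS-sorted into 13 bins that were each Illumina-sequenced. Three independent transformations were averaged, keeping only members with ≥30 reads in all replicates and CV ≤0.5.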
With TCCCCGGGAGTTGGGGAGA the TetR repression strength was 0.184. TCCCGAAGAGTGACAGAGA gave a TetR repression strength of 0.47. In the case of TCCCTGGCAGTTTTCGAGA, the TetR repression strength is reported as 0.218. TCCCGTGAAGTGACTGAGA was tested, and the TetR repression strength was 0.272. Sequence TCCCTTCCAGTTCTTGAGA has a TetR repression strength of 0.472. For TCCCGTCCAGTGGTGGAGA, the TetR repression strength was 0.19. TCCCGGGAAGTTTTAGAGA showed a TetR repression strength of 0.168. Work on TCCCCCTTAGTGATTGAGA yielded a TetR repression strength of 0.257. Sequence TCCCTTTCAGTGAACGAGA has a TetR repression strength of 0.513. Work on TCCCTAGAAGTGAGAGAGA yielded a TetR repression strength of 0.0353. Work on TCCCCATTAGTACAAGAGA yielded a TetR repression strength of 0.339. TCCCATACAGTCACCGAGA was tested, and the TetR repression strength was 0.424. TCCCGGATAGTCGGTGAGA showed a TetR repression strength of 0.167. TCCCTACCAGTAAGAGAGA gave a TetR repression strength of 0.245. TCCCCGCGAGTGCAGGAGA was tested, and the TetR repression strength was 0.268. TCCCGCGAAGTTGCGGAGA was tested, and the TetR repression strength was 0.122. TCCCGCTCAGTATGTGAGA gave a TetR repression strength of 0.453. Work on TCCCCCGGAGTCGATGAGA yielded a TetR repression strength of 0.188. Sequence TCCCCGGTAGTGCGTGAGA has a TetR repression strength of 0.357. TCCCGTCGAGTGTGAGAGA was tested, and the TetR repression strength was 0.186. Sequence TCCCATTCAGTTCTGGAGA has a TetR repression strength of 0.331. TCCCTCGTAGTTCCTGAGA showed a TetR repression strength of 0.33. TCCCCAGGAGTATGAGAGA gave a TetR repression strength of 0.3. TCCCGTGAAGTCATCGAGA was tested, and the TetR repression strength was 0.165. With TCCCGATGAGTGGACGAGA the TetR repression strength was 0.119. For TCCCCACGAGTGGAAGAGA, the TetR repression strength was 0.251. For TCCCGGTGAGTCGGGGAGA, the TetR repression strength was 0.333. TCCCTATGAGTGAAGGAGA showed a TetR repression strength of 0.227. For TCCCTGTCAGTGCTTGAGA, the TetR repression strength was 0.464. Work on TCCCGGGTAGTGCGTGAGA yielded a TetR repression strength of 0.12. TCCCTGTCAGTGTCGGAGA showed a TetR repression strength of 0.388. Sequence TCCCGTATAGTGAAGGAGA has a TetR repression strength of 0.0428. TCCCACTCAGTTTGGGAGA gave a TetR repression strength of 0.144. With TCCCTGGCAGTGTGTGAGA the TetR repression strength was 0.164. For TCCCGTTCAGTTGGCGAGA, the TetR repression strength was 0.398. With TCCCCTCTAGTCAGCGAGA the TetR repression strength was 0.278. Work on TCCCTCGTAGTTGACGAGA yielded a TetR repression strength of 0.042. TCCCTCGTAGTGTGTGAGA gave a TetR repression strength of 0.478. TCCCCACAAGTGGTAGAGA was tested, and the TetR repression strength was 0.117. Work on TCCCTTTTAGTTGATGAGA yielded a TetR repression strength of 0.261. TCCCGAATAGTTAGGGAGA showed a TetR repression strength of 0.289. For TCCCCATGAGTGCCTGAGA, the TetR repression strength was 0.271. TCCCTAGCAGTGGGGGAGA was tested, and the TetR repression strength was 0.119. Sequence TCCCGAAGAGTACGAGAGA has a TetR repression strength of 0.448. TCCCTGTAAGTTTGTGAGA showed a TetR repression strength of 0.131. TCCCTTAGAGTCGTTGAGA was tested, and the TetR repression strength was 0.319. In the case of TCCCTTCAAGTTTAAGAGA, the TetR repression strength is reported as 0.128. TCCCGGAGAGTAGTGGAGA showed a TetR repression strength of 0.564. In the case of TCCCGTTAAGTCCGGGAGA, the TetR repression strength is reported as 0.0795. TCCCGACCAGTGGGTGAGA showed a TetR repression strength of 0.205. Work on TCCCAACGAGTTGATGAGA yielded a TetR repression strength of 0.274. In the case of TCCCGTCTAGTATGGGAGA, the TetR repression strength is reported as 0.253. With TCCCACGCAGTGCGAGAGA the TetR repression strength was 0.341. TCCCGTTCAGTATAAGAGA was tested, and the TetR repression strength was 0.319. Work on TCCCCCCGAGTGGCTGAGA yielded a TetR repression strength of 0.289. With TCCCAGTTAGTCTGCGAGA the TetR repression strength was 0.162. TCCCAGCGAGTGCCAGAGA showed a TetR repression strength of 0.233. TCCCGGTCAGTGGTCGAGA showed a TetR repression strength of 0.633. TCCCAAGTAGTCCTCGAGA was tested, and the TetR repression strength was 0.396. TCCCGCTAAGTAAGTGAGA gave a TetR repression strength of 0.00864. TCCCACTCAGTACGCGAGA was tested, and the TetR repression strength was 0.36. TCCCATCAAGTTTTGGAGA was tested, and the TetR repression strength was 0.171. TCCCGCGTAGTGGGCGAGA gave a TetR repression strength of 0.232. Work on TCCCGTTCAGTTGGAGAGA yielded a TetR repression strength of 0.361. TCCCAATAAGTGAAAGAGA gave a TetR repression strength of 0.688. In the case of TCCCGGCGAGTCGGGGAGA, the TetR repression strength is reported as 0.143. TCCCCCCTAGTGGTTGAGA was tested, and the TetR repression strength was 0. For TCCCATCGAGTGGTGGAGA, the TetR repression strength was 0.204. TCCCGGCTAGTGGAAGAGA was tested, and the TetR repression strength was 0.404. Work on TCCCGCTCAGTGAGTGAGA yielded a TetR repression strength of 0.375. With TCCCAAGGAGTATAAGAGA the TetR repression strength was 0.288. Work on TCCCCAGGAGTAACGGAGA yielded a TetR repression strength of 0.158. TCCCTATTAGTTATTGAGA was tested, and the TetR repression strength was 0.444. TCCCGTGCAGTGACCGAGA showed a TetR repression strength of 0.709. In the case of TCCCCGAGAGTGGTCGAGA, the TetR repression strength is reported as 0.332. With TCCCCTCCAGTTGGTGAGA the TetR repression strength was 0.0284. Work on TCCCGGACAGTTGAGGAGA yielded a TetR repression strength of 0.347. TCCCAGAAAGTGGCGGAGA was tested, and the TetR repression strength was 0.316. With TCCCGTGGAGTGTGGGAGA the TetR repression strength was 0.272. TCCCGGCAAGTCGTGGAGA gave a TetR repression strength of 0.402. TCCCACTCAGTGTGGGAGA gave a TetR repression strength of 0.44. With TCCCTAGGAGTGAGTGAGA the TetR repression strength was 0.342. Work on TCCCTACGAGTCGATGAGA yielded a TetR repression strength of 0.219. Sequence TCCCGGTAAGTTGGAGAGA has a TetR repression strength of 0.191. Work on TCCCCTCTAGTGACCGAGA yielded a TetR repression strength of 0.399. TCCCGTCTAGTCGGCGAGA was tested, and the TetR repression strength was 0.00715. Work on TCCCAAGGAGTGCGTGAGA yielded a TetR repression strength of 0.349. For TCCCCGGGAGTGGGTGAGA, the TetR repression strength was 0.121. TCCCTGAGAGTAGGGGAGA showed a TetR repression strength of 0.375. TCCCAAAGAGTGAAGGAGA showed a TetR repression strength of 0. Sequence TCCCGAACAGTGAGGGAGA has a TetR repression strength of 0.0319. TCCCGTCCAGTACGGGAGA was tested, and the TetR repression strength was 0.425. Work on TCCCGAATAGTTGAGGAGA yielded a TetR repression strength of 0.329. TCCCAACGAGTTGGCGAGA was tested, and the TetR repression strength was 0.176. In the case of TCCCGTGCAGTAGTGGAGA, the TetR repression strength is reported as 0.0415. TCCCTGCTAGTTACAGAGA gave a TetR repression strength of 0.348. Work on TCCCGCCGAGTGACGGAGA yielded a TetR repression strength of 0.386. Sequence TCCCGGTGAGTGACAGAGA has a TetR repression strength of 0.442. For TCCCCTTTAGTTGGCGAGA, the TetR repression strength was 0.364. TCCCCTGGAGTTGCCGAGA gave a TetR repression strength of 0.268. TCCCCTGAAGTAGCGGAGA gave a TetR repression strength of 0.15. In the case of TCCCGGTGAGTCTGCGAGA, the TetR repression strength is reported as 0.0299.
